The campaign covered roughly 410,000 compounds. About 530 (0.13%) were called active. The shares of active, inactive and inconclusive entries below differ from those in the screen. Calls follow the shape of the dose curve; as a rule, active = well fitted inhibition curve with a large enough effect; inconclusive = small, poorly fitted or top-dose-only effect, or another doubt; inactive = no such curve, though single readings can be large or run the other way. Potencies beside an inconclusive call are fits to weak or partial responses and may not hold up.
Experiment: qHTS of GLP-1 Receptor Inverse Agonists: Cytotox Screen
Conditions: HEK293 cAMP-luciferase reporter cells, luminescence, 24 h; series mostly up to 38.3 µM
How it was run: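 To flag toxic compounds, the library was rerun on cells for 24 hr at 37 deg C and 5% CO2. Viability-linked luminescence was captured 12 min after adding luciferase detection reagent.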
Potency is read from the fitted curve at half-maximal effect.

| Structure (SMILES) | Potency |
| --- | --- |
| Cc1cc(NC(=O)NC(=O)c2ccccc2NC(=O)CN(C)C)ccc1Oc1ncc(Br)cn1 | inconclusive: 5.62 µM [inhibitor, partial curve] |
| C=CCNC(=S)NNc1nc(N2CCCC2)nc(N2CCCC2)n1 | inconclusive: 28.2 µM [inhibitor, single point] |
| CCCCCc1ccc(-c2cn(CC3CCCCC3)nn2)cc1 | inconclusive: 5.01 µM [inhibitor, partial curve] |
| O=C(NCCCN1CCOCC1)C(=O)N/N=C/c1ccccc1 | inactive |
| Cc1nn(Cc2ccc(Cl)cc2Cl)c(C)c1NC(=O)NC12CC3CC(CC(C3)C1)C2 | inactive |
| COc1ccc(CNn2c(-c3cccc(C)c3)nc3ccccc3c2=O)cc1OC | inconclusive: 15.8 µM [inhibitor, single point] |
| CCN1C(=O)CC(N2CCN(c3ccc(C(=O)c4ccccc4)cc3)CC2)C1=O (stereo not given) | inactive |
| O=C1C(Cl)=C(NCC2CCCO2)C(=O)N1CCc1ccccc1 (stereo not given) | inactive |
| COC(=O)c1[nH]c2ccc(F)cc2c1NS(=O)(=O)c1ccc(OC)cc1 | inconclusive: 5.01 µM [inhibitor, full curve, poor fit] |
| CC(C)c1ccc(Nc2nc(NCc3ccco3)nc(N3CCOCC3)n2)cc1 | inactive |
| C/C(Cc1ccccc1)=N\NC(=O)CNC(=O)c1ccccc1O | inconclusive: 3.16 µM [inhibitor, partial curve, poor fit] |
| CCOc1ccc(-n2c(C)nnc2SCC(=O)N(CC)CC)cc1 | inconclusive: 0.398 µM [inhibitor, full curve, poor fit] |
| COc1cc(NC(=O)CNS(=O)(=O)c2cccs2)cc(OC)c1OC | inactive |
| CCOC(=O)/C(C)=N/Nc1nc(-c2ccc(NC(C)=O)cc2)cs1 | inactive |
| COc1ccc(OC)c(N2Cc3cc(C)c(C)cc3C2)c1 | inconclusive: 28.2 µM [inhibitor, single point] |
| CSc1cc(-c2ccc(Cl)cc2)c(C(=O)NN)s1 | inactive |
| O=C(Cc1ccc(F)cc1)NCCS(=O)(=O)N1CCN(c2ccccc2)CC1 | inconclusive: 28.2 µM [inhibitor, single point] |
| COc1ccc(/C=N/Nc2cc(C)nc3c(C)cccc23)cc1 | inconclusive: 28.2 µM [inhibitor, single point] |
| CCOc1ccc(NC(=O)CSc2nc3ccccc3c(=O)n2CCNC(C)=O)cc1 | inconclusive: 0.501 µM [inhibitor, full curve, poor fit] |
| Fc1ccc(-n2ncc3c(NCCC4=CCCCC4)ncnc32)cc1 | inactive |
| Cc1cnc(C(=O)OCC(=O)c2ccc(-c3ccccc3)cc2)cn1 | inconclusive: 28.2 µM [inhibitor, single point] |
| CCOC(=O)Cn1c(=O)oc2cc(S(=O)(=O)NCCc3ccc(C)cc3)ccc21 | inconclusive: 5.01 µM [inhibitor, full curve, poor fit] |
| Cc1ccc(NC(=O)Nc2ccc3c(c2)N(C)C(=O)CS3)cc1C | inconclusive: 28.2 µM [inhibitor, single point] |
| c1ccc(Cn2c[n+](Cc3ccccc3)cn2)cc1 | inconclusive: 31.6 µM [inhibitor, single point] |

| Structure (SMILES) | Potency |
| --- | --- |
| O=[N+]([O-])c1cccc2c(N3CCCC3)ccnc12 | inconclusive: 10 µM [inhibitor, single point] |
| O=C(CSc1nnc2n(C3CCCC3)c(=O)c3ccccc3n12)N1CCCCCC1 | inconclusive: 12.6 µM [inhibitor, partial curve, poor fit] |
| C/C(N)=C(/C#N)C(=O)CSc1nnc(-c2ccc3c(c2)OCO3)o1 | inconclusive: 8.91 µM [inhibitor, partial curve, poor fit] |
| S=C(NCc1ccco1)Nc1ccccn1 | inconclusive: 11.2 µM [inhibitor, single point] |
| Cc1ccc(S(=O)(=O)N(C)c2ccc(C(=O)Nc3ccccn3)cc2)cc1 | inactive |
| COCCCN(C(=O)c1cc(C)oc1C)c1c(N)n(CC(C)C)c(=O)[nH]c1=O | inactive |
| CN1C(=O)C2(Nc3ccccc3-c3nc4ccccc4n32)c2ccccc21 (stereo not given) | inconclusive: 1.58 µM [inhibitor, partial curve, poor fit] |
| Cc1ccc(S(=O)(=O)Nc2ccc(S(=O)(=O)Nc3ncccn3)cc2)cc1 | inactive |
| O=C1NC(c2cccs2)Nc2ccccc21 (stereo not given) | inactive |
| CCOc1ccc(N)c(SSc2cc(OCC)ccc2N)c1 | inconclusive: 2.82 µM [inhibitor, full curve] |
| COCc1nnc(NC(=O)c2ccc(S(=O)(=O)N(CC(C)C)CC(C)C)cc2)o1 | inactive |
| N#C/C(=C\c1cccs1)C(=O)NCc1ccccc1 | inactive |
| CCOC(=O)c1cnc2c(C)cc(C)cc2c1NCCCN1CCOCC1 | inconclusive: 14.1 µM [inhibitor, single point] |
| Cc1nn(-c2ccc(C(=O)O)cc2)c(N)c1-c1ccccc1 | inactive |
| O=C(NNc1ccc([N+](=O)[O-])cc1)C1CC2CCCC(C1)C2=O (stereo not given) | inconclusive: 25.1 µM [inhibitor, single point] |
| CC1CCCCC1n1c(=S)[nH]c2ccccc2c1=O (stereo not given) | inconclusive: 14.1 µM [inhibitor, single point] |
| COc1ccc(C(=O)C2CCCN(C3Cc4ccccc4C3)C2)c(OC)c1 (stereo not given) | inconclusive: 28.2 µM [inhibitor, single point] |
| S=C(NN=C1CCN(Cc2ccccc2)CC1)NC1CCCCC1 | inconclusive: 12.6 µM [inhibitor, single point] |
| O=C(CCCCN1CCCCC1)c1ccccc1 | inactive |
| CN(C)C(=O)CCCc1nc(-c2ccc(Cl)cc2)no1 | inconclusive: 17.8 µM [inhibitor, partial curve, poor fit] |
| O=C(NC1C2CC3CC(C2)CC1C3)C1CC1 (stereo not given) | inactive |
| Cc1ccc(N2CC(C(=O)Nc3nccs3)CC2=O)cc1Cl (stereo not given) | inconclusive: 22.4 µM [inhibitor, single point] |
| Cc1ccc(C(=O)N2CCN(c3ccc([N+](=O)[O-])c(NCc4cccnc4)c3)CC2)cc1 | inconclusive: 12.6 µM [inhibitor, single point] |
| CCOC(=O)c1[nH]c(C)c(CCC(=O)NCc2ccc(C)cc2)c1C | inactive |

| Structure (SMILES) | Potency |
| --- | --- |
| Cc1nn(-c2ccccc2)c(Cl)c1C1C(C#N)=C(N)OC2=C1C(=O)CC(C)(C)C2 (stereo not given) | inconclusive: 11.2 µM [inhibitor, partial curve, poor fit] |
| Cc1ccc(C)c(N2CCN(c3nccn4nc(-c5ccc(Br)cc5)cc34)CC2)c1 | inactive |
| C/C(CCc1oc2ccc(Cl)cc2c1-c1ccc(C)o1)=N\O | inactive |
| C/C(=N\Nc1cccc2cccnc12)c1ccccn1 | inconclusive: 0.447 µM [inhibitor, partial curve, poor fit] |
| COc1cc(C2c3c(oc4ccccc4c3=O)C(=O)N2c2nc(C)c(C)s2)ccc1O (stereo not given) | inactive |
| O=C(CN(Cc1ccccc1)S(=O)(=O)c1ccc2c(c1)OCCO2)Nc1ccc2c(c1)OCCO2 | inconclusive: 28.2 µM [inhibitor, single point] |
| COc1cccc(C(=O)NC(=O)Nc2ccc(-n3nc(C(F)(F)F)cc3C(F)(F)F)cc2)c1 | inactive |
| O=C(CCNC(=O)c1ccc(Cl)cc1)Nc1cccc(S(=O)(=O)N2CCCCCC2)c1 | inactive |
| O=[N+]([O-])c1ccc2[nH]c(O)c(N=NC(=S)Nc3cccnc3)c2c1 | inconclusive: 31.6 µM [inhibitor, single point] |
| CC1=NN(C(=O)c2ccc(Br)cc2)C(O)(C(F)(F)OC(F)(F)F)C1 (stereo not given) | inconclusive: 14.1 µM [inhibitor, single point] |
| O=C(N/N=C/c1ccc(Cl)cc1)c1ccc2c(c1)OCO2 | inconclusive: 3.16 µM [inhibitor, partial curve] |
| O=C(Nc1nnc(-c2ccc3c(c2)CCCC3)o1)c1ccc(Cl)cc1Cl | inconclusive: 28.2 µM [inhibitor, single point] |
| Cc1ccc(-n2c3nc(=O)[nH]c(=O)c-3cc3cc([N+](=O)[O-])ccc32)cc1C | inconclusive: 10 µM [inhibitor, partial curve, poor fit] |
| Cc1nc([N+](=O)[O-])c(Br)n1CC(=O)c1cccc([N+](=O)[O-])c1 | inconclusive: 11.2 µM [inhibitor, partial curve, poor fit] |
| COc1cccc(-c2cc(NC=O)c3ncc(-c4ccc(OC)c(OC)c4)n3c2)c1 | inactive |
| Cc1ccc(S(=O)(=O)N(CC(=O)N2CCc3ccccc3C2)c2ccc(C)c(C)c2)cc1 | inactive |
| CCOc1ccc(NC(=S)NCCN2CCN(Cc3ccccc3)CC2)cc1 | inconclusive: 14.1 µM [inhibitor, single point] |
| COc1ccc(C[C@H]2CN3C(=NC[C@@H]3C(C)C)N2CCNC(=O)c2ccc(C)c(Br)c2)cc1 | inconclusive: 11.2 µM [inhibitor, single point] |
| CC(=O)Nc1ccc(NC(=O)CCn2nnc3ccccc32)cc1 | inconclusive: 28.2 µM [inhibitor, single point] |
| Cc1ccc([N+](=O)[O-])cc1-c1ccc(/C=C(\C#N)c2[nH]nc(N)c2C#N)o1 | inconclusive: 28.2 µM [inhibitor, single point] |
| CC(C)OC(=O)c1c(NC(=O)CCC(=O)O)sc2c1CCCCC2 | inconclusive: 10 µM [inhibitor, single point] |
| Cc1cc(C)cc(OCC(=O)NNC(=O)c2ccccn2)c1 | inconclusive: 12.6 µM [inhibitor, single point] |
